This note sets out measurements from the supplement of paper PMC10338343.

± gives the standard deviation. The list shows a part of the results, in another mix than the full data.
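Further: 1 nM active piRISC with 0.1 nM target library at 33 °C single turnover.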

The test system of this assay is MIWI (PIWIL1) piRISC loaded with piRNA #1 (30 nt). Put plainly: pre-steady-state target cleavage rate (min^-1); MIWI and MILI are mouse PIWI proteins and EfPiwi is from a freshwater sponge; tags in brackets are library labels; higher = faster piRNA-guided slicing of the target. The settings on record: guide: piRNA #1 5'p-UGAGGUAGUAGGUUGUAUAGUAUCCAGAGG; auxiliary factor: 500 nM mouse GTSF1. The essentials:
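A transcribed, DNA-blocked target RNA library […] was incubated at 33 °C for 0–8 or 0–960 min with 1 nM active affinity-purified piRISC carrying one synthetic guide, in HEPES–potassium acetate buffer with or without 500 nM GTSF1 partner protein. Uncleaved targets were then sequenced and normalised to depth and to weakly complementary targets. Data from three trials were pooled, with k3 capped at 0.0001 min^-1, and a burst-and-steady-state fit yielded the pre-steady-state cleavage rate.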
For GGAGACCUAUCUAUACAACCUACUCACCUCA, the “pre-steady-state target cleavage rate” value stood at 0.537 ± 0.059. The same measure for GGUGUGGAUACUAUACAACCUACUAGCUCA: 0.162 ± 0.042; for GGAGUGGAUACUCAUACAACCUACUACCUCA: 1.16 ± 0.079; for GGAGAGGAUACUAUACAACCUACUUACCUCA: 1.18 ± 0.062.

Regarding GGACUGUAUACUAUACAACCUACUACCUCA, the “pre-steady-state target cleavage rate” value was determined as 1.5 ± 0.13. For GGAGACGACUACUAUACAACCUACUACCUCA, the “pre-steady-state target cleavage rate” value turned out to be 1.5 ± 0.094. The same measure for GCUCUGGAUACUAUUCAACCUACUAGCUCA: 1.3 ± 0.13; for GGAGACGAUACCUAUACAACCUACUACCUCA: 1.1 ± 0.1. The same measure for GCACUGGAUACUAUACAACGUACUACCUCA: 1.19 ± 0.063; for GGAGUGGAUACUAUUCUACCUACUACCUCA: 1.04 ± 0.11. The same measure for GGUCUGGAUACUAUGACAACCUACUACCUCA: 1.63 ± 0.11; for GGAGACCUUACGAUACAACCUACUACCUCA: 1.03 ± 0.1; for GGAGACCUAACUAUACAACCUACUAUCCUCA: 0.805 ± 0.089. With “GGAGAGGAUACUAUACAACCUACUACCUCU [g2:g25:cont:t1U]”, the “pre-steady-state target cleavage rate” value is 0.897 ± 0.05. The value for GGAGACCUAACUAUACAACCUAUUACCUCA was 0.598 ± 0.052. The value for GGAGUGGAUACUAUACAACCUACUACCACA was 0.51 ± 0.044; that for GGAGUGGAUACUAUACAACGUACUAGCUCA was 0.0857 ± 0.017. The same measure for CCUCUGGAUACUAUACAACACUACUACCUCA: 0.00935 ± 0.0044; for GGAGACGAUACUAUACAACGUACUUCCUCA: 0.313 ± 0.034. On to CGAGUGGAUACUAUACAACCUACUACCUCA, for which the “pre-steady-state target cleavage rate” value is 1.84 ± 0.09. The value for GGAGAGGAUAGUAUUCAACCUACUACCUCA was 0.19 ± 0.031; that for GGAGAGGAUACUAUAGAACCUACAACCUCA was 0.00304 ± 0.0026. The same measure for GGAGACCUAUCUAUACAACCUACUAUCCUCA: 0.791 ± 0.087.

For GGAGAGGAAACUAUACAACCUACAACCUCA, the “pre-steady-state target cleavage rate” value was determined as 0.607 ± 0.058.

Regarding CCUCUGGAUACUAUACAACCUACUAACUCA, the “pre-steady-state target cleavage rate” value was 1.5 ± 0.095. Take GCUUCUGGAUACUAUACAACCUACUACCUCA: the “pre-steady-state target cleavage rate” value was 1.94 ± 0.091. The same measure for GCUCUCGUUACUAUACAACCUACUACCUCA: 1.45 ± 0.096; for “GGAGACCUAUCUAUACAACCUACAUGGAGA [g8:g20:cont:t1A]”: 0.00396 ± 0.0031.

With GCUCUGCAUACUAUACUACCUACUACCUCA, the “pre-steady-state target cleavage rate” value came out at 1.56 ± 0.1. The value for GGAGACCUUACUAAACAACCUUCUACCUCA was 0.127 ± 0.01. The value for GGAGACCAUACAAUACAACCUACUUCCUCA was 0.277 ± 0.05. The same measure for GGAGACGAUACUAUACAACCUACCUACCUCA: 1.2 ± 0.064; for CCUCUGGAUACUAUUCAAGCUACUACCUCA: 1.36 ± 0.067. In the case of GGAGACCUUACUAUACAACCUUCUACCACA, the “pre-steady-state target cleavage rate” value is 0.536 ± 0.045. The value for GGAGUGGAAACUAUACAAGCUACUACCUCA was 0.882 ± 0.046; that for CCUCUGGAUACUAUACACCUACUACCUCA was 0.317 ± 0.036. The value for GGAGACCUAUCUAUAGAACGUACUACCUCA was 0.0514 ± 0.0099. For GGUGUGGAUAGUAUACAACCUACUACCUCA, the “pre-steady-state target cleavage rate” value came to 0.328 ± 0.033.

As to GGAGACCAUACAUAUACAACCUACUACCUCA, the “pre-steady-state target cleavage rate” value turned out to be 0.859 ± 0.1.

With GGAGACCAUACUAUACUUCCUACUACCUCA, the “pre-steady-state target cleavage rate” value worked out at 0.113 ± 0.017.
